The structures appear in SMILES notation. Out of some 48,000 compounds screened, about 550 (1.1%) were called active. Another 4% or so got no clear call; they are omitted. No stated cut-off is given here; in the data, active means potency below about 15 µM; inconclusive means mostly about 16 µM to 33 µM; inactive means weaker than that. Some of the results follow.
Potency means the concentration at half of the fitted maximal effect.

The target in the assay is Lysosomal acid glucosylceramidase (Homo sapiens) (UniProt P04062). As to the kind of experiment: Glucocerebrosidase.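 Further: the screen sought inhibitors.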 The following applies: purified enzyme, resorufin glucoside fluorescence (screen aimed at inhibitors), 20 min; series mostly up to 77 µM. In short, it runs like this: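 Wild-type enzyme at 0.2 nM final in 50mM citric acid/KH2PO4, 10mM sodium taurocholate, 0.01% tween-20, pH 5.9, with resorufin beta-D-glucopyranoside at 30 uM final. Compounds titrated, 20 min at RT, red fluorescence read; AC50 from titration.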
UniProt P04062, sequence (P04062 whole entry, looked up): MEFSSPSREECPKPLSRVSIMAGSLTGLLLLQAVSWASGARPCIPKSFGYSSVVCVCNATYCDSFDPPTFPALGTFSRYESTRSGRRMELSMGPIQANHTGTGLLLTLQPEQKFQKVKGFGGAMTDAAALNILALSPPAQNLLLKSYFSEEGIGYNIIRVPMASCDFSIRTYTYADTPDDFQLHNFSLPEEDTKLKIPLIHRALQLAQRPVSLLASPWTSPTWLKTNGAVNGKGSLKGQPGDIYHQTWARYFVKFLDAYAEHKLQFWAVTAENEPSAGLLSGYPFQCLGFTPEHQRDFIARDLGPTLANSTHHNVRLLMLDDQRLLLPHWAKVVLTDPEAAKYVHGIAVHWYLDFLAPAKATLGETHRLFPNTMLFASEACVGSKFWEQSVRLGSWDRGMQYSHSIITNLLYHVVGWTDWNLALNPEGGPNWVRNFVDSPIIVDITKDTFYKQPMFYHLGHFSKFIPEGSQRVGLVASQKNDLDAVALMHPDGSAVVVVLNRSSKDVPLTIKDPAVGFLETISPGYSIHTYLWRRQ
Turning to `Cc1ccc(S(=O)(=O)N2CCCC2C(=O)Nc2nc3c(s2)CCCC3)cc1` (configuration not stated), the Potency was inactive: > 76.9 µM.
For the compound `Cc1cccc(N2CCN(S(=O)(=O)c3ccc4c(c3)CCC(=O)N4)CC2C)c1` (configuration not stated), the Potency is inactive: > 76.9 µM.
For `O=c1c2cccc3c2c(nn1CN1CCOCC1)-c1ccccc1-3` the value was inactive: > 76.9 µM; for `Cc1ccc(-n2nnnc2SCC(=O)NCCC2=CCCCC2)c(C)c1`, inactive: > 76.9 µM; for `O=C(Cc1c(C(=O)O)[nH]c2ccc(Cl)cc12)Nc1ccc2c(c1)OCCO2`, inactive: > 76.9 µM.
In the case of `CCCC(=O)NC(Nc1ccc(S(=O)(=O)Nc2ncccn2)cc1)(C(=O)OCC)C(F)(F)F` (configuration not stated) it was inactive: > 76.9 µM.
In the case of `CCC(C)(C)NC(=O)C(OC(=O)c1cc2sccc2n1C)c1ccc(OC)cc1` (configuration not stated) it was inactive: > 76.9 µM; in that of `Cn1cccc1C(=O)NC(=O)CSc1nc2ccccc2s1`, inactive: > 76.9 µM; in that of `Cn1cccc1C(=S)N1CCOCC1`, inactive: > 76.9 µM.
With `O=C(COc1ccccc1)Nn1cnc2ccccc21`, the Potency was inactive: > 76.9 µM.
In the case of `O=C(NC1CC1)C1CCC(=O)N1C1CCCC1` (configuration not stated) it was inactive: > 76.9 µM; in that of `CCCCNC(=O)c1sc2nc(C)cc(COC)c2c1-n1cccc1`, inactive: > 76.9 µM.
In the case of `CCOC(=O)c1cnc(Nc2nc3ccccc3o2)nc1CSc1nnc(C)s1` it was inactive: > 76.9 µM; in that of `CCOc1ccc2nc(SC(C)C(N)=O)[nH]c2c1` (configuration not stated), inactive: > 76.9 µM; in that of `Cc1ccc(NC(=O)CSc2nnc(-c3ccccc3C)o2)cc1C`, inactive: > 76.9 µM.
For `COc1ccc(NC(C)=O)cc1NC(=O)CN1CCN(CC(=O)Nc2ccccc2Cl)CC1` the value was inactive: > 76.9 µM; for `O=C(O)C1(NS(=O)(=O)c2ccc(F)c(Cl)c2)CCCCC1`, inactive: > 76.9 µM; for `Cc1cc(C)n2nc[n+](C)c2n1`, inactive: > 76.9 µM.
For `COC(=O)c1ccccc1NC(=O)CN(C1CCCCC1)S(C)(=O)=O`, the Potency was inactive: > 76.9 µM.
In the case of `CCOc1ccc(C(N)=O)cc1OC` it was inactive: > 76.9 µM.
For `O=C(NCC1CCC(C(=O)O)CC1)c1cccnc1` (configuration not stated) the value was inactive: > 76.9 µM.
In the case of `CCCCN(C(=O)NC(=O)Nc1ccccc1C)S(C)(=O)=O` it was inactive: > 76.9 µM.
For the compound `Cc1n[nH]c(C)c1S(=O)(=O)Nc1ccc2c(c1)OCCO2`, the Potency was inactive: > 76.9 µM.
For `O=S(=O)(NCc1ccncc1)c1ccc(S(=O)(=O)NCC2CCCO2)cc1` (configuration not stated) the value was inactive: > 76.9 µM.
For `O=C1CCC(C(=O)N(Cc2ccco2)C2(C(=O)NC3CCCC3)CCCCC2)N1` (configuration not stated) the value was inactive: > 76.9 µM; for `CC12CC(NC(=O)N1c1ccc(C(=O)N3CCN(c4ccccn4)CC3)cc1)c1ccccc1O2` (configuration not stated), inactive: > 76.9 µM.
In the case of `O=S(=O)(Nc1cccc(C(F)(F)F)c1)c1cnc[nH]1`, the Potency is inactive: > 76.9 µM.
In the case of `COc1ccc(-c2nc3scc(-c4ccccc4)n3n2)cc1` it was inactive: > 76.9 µM.
For `COC(=O)C1=C(C)N(c2cccc(Cl)c2)C(=O)C1` the value was inactive: > 76.9 µM.
For `CC(OC(=O)c1cccs1)C(=O)NCc1ccccc1` (configuration not stated) the value was inactive: > 76.9 µM; for `COc1ccc(NC(=O)c2c(C)oc3c2CCCC3)cc1`, inactive: > 76.9 µM.
`COCCn1c(SCC(=O)Nc2cc(C)cc(C)c2)nnc1C(C)C`: the Potency was inactive: > 76.9 µM.
For `Cc1ccc(N)cc1-n1c(C)ccc1C` the value was inactive: > 76.9 µM; for `CCOC(=O)c1cnc(SCC(=O)NCc2cccs2)nc1N`, inactive: > 76.9 µM.
For `CSc1ccc(CN(C)CC(=O)NC(=O)NC(C)(C)C)cc1` the value was inactive: > 76.9 µM.
For `Cn1ccnc1Sc1nc2c(c(=O)n(C)c(=O)n2C)n1C` the value was inactive: > 76.9 µM.
With `CC1CCN(CCCNC(=O)c2cc3sccc3n2C)CC1`, the Potency is inactive: > 76.9 µM.
In the case of `CCN1CCCC1CNC(=O)c1ccc2c(=O)n(CCOC)c(=O)[nH]c2c1` (configuration not stated) it was inactive: > 76.9 µM; in that of `O=C(COC(=O)c1ccccc1NC(=O)c1ccco1)NCCC1=CCCCC1`, inactive: > 76.9 µM; in that of `O=C(NCc1ccc2c(c1)OCO2)C1CC(=O)N(c2ccc(O)cc2)C1` (configuration not stated), inactive: > 76.9 µM.
For the compound `CCOC(=O)c1c(C)c(C(=O)N2CCc3ccccc3C2)c(C)n1CC`, the Potency was inactive: > 76.9 µM.
In the case of `Cc1ccc(N(C(=O)c2ccc(S(=O)(=O)N3CCOCC3)cc2)C2C=CS(=O)(=O)C2)cc1` (configuration not stated) it was inactive: > 76.9 µM.
For `Cn1c(=O)cc(OCCCC(=O)Nc2ccccn2)c2ccccc21` the value was inactive: > 76.9 µM; for `NC(=O)c1cnn(Cc2ccc(Cl)cc2)c1N`, inactive: > 76.9 µM; for `O=C(NCCO)c1cccc(S(=O)(=O)N2CCCCC2)c1`, inactive: > 76.9 µM.
As for `COc1ccc(C2C3=C(CCCC3=O)Nc3nc(C(F)(F)F)nn32)cc1OC` (configuration not stated), the Potency is inactive: > 76.9 µM.
For `C=CCn1c(=O)[nH]c2cc(C(=O)N3CCN(c4cccc(Cl)c4)CC3)ccc2c1=O` the value was “inactive”; for `COc1ccccc1N1CCN(C(=O)CSc2nc3ccccc3c(=O)n2CC2CCCO2)CC1` (configuration not stated), inactive: > 76.9 µM; for `O=C(CSc1cc(Cl)ccc1Cl)NCC1CCCO1` (configuration not stated), inactive: > 76.9 µM.
In the case of `O=C(Nc1cccc2c1C(=O)NC2=O)c1ccc(S(=O)(=O)N2CCCC2)cc1` it was inactive: > 76.9 µM; in that of `COc1ccccc1C1C=C(c2ccc(C)cc2)Nc2nnnn21` (configuration not stated), inactive: > 76.9 µM; in that of `Cc1ccc(S(=O)(=O)N2CCCSCC2)cc1`, inactive: > 76.9 µM.
For `Cn1c(=O)n(CCN2CCOCC2)c(=O)c2c1nc1n2CCN1c1ccc(Oc2ccccc2)cc1`, the Potency was inactive: > 76.9 µM.
In the case of `CCOC(=O)c1cc(-c2ccccc2)sc1N`, the Potency was inactive: > 76.9 µM.
In the case of `c1coc(CNc2c3c(nc4ncnn24)CCCC3)c1` it was “inactive”; in that of `O=c1c2c(nc3n1CCCCC3)sc1c(O)cccc12`, inactive: > 76.9 µM; in that of `Cc1cc(-c2ccco2)n(CC(=O)O)n1`, inactive: > 76.9 µM.
For `CCc1ccc(C(=O)CC2(O)C(=O)N(CN3CCOCC3)c3ccccc32)cc1` (configuration not stated) the value was inactive: > 76.9 µM; for `CCSc1nnc(NC(=O)c2nc(-c3ccccc3)n(-c3ccccc3)n2)s1`, inactive: > 76.9 µM; for `COCCn1c(-c2ccccc2)nc(=S)c2c1CC(C)(C)OC2`, inactive: > 76.9 µM.
For `COCCN(Cc1cc2cccc(C)c2[nH]c1=O)C(=O)c1ccccc1` the value was inactive: > 76.9 µM; for `CCC(=O)Nc1sc2c(c1C(N)=O)CCC2`, inactive: > 76.9 µM; for `Cc1c(C(=O)N2CCOCC2)[nH]c2c1C(=O)CC(c1ccc(Cl)cc1)C2` (configuration not stated), inactive: > 76.9 µM.
In the case of `CCn1c(CSc2nccn2C)nc2cc(C(=O)O)ccc21`, the Potency was inactive: > 76.9 µM.
For `COC(=O)c1cc2ccsc2n1CC(=O)N1CCCc2ccccc21` the value was “inactive”; for `CCCn1c(=O)c2ccccc2n2c(SCCOc3ccccc3)nnc12`, inactive: > 76.9 µM.
For `Nc1nnc(COc2cccc(C(F)(F)F)c2)s1` the value was inactive: > 76.9 µM; for `CCOC(=O)Cc1csc(NC(=O)c2ccc(S(=O)(=O)N3CCCCC3)cc2)n1`, inactive: > 76.9 µM; for `O=C(CSc1nnc(-c2ccccc2)o1)n1c2c(c3ccccc31)CCCC2`, inactive: > 76.9 µM.
`O=C(NC1CCCCC1)C(c1ccco1)N(C(=O)c1csnn1)C1CCCC1` (configuration not stated): the Potency was inactive: > 76.9 µM.
In the case of `O=c1[nH]c2cc3c(cc2cc1CN(CC1CCCO1)S(=O)(=O)c1ccccc1)OCCO3` (configuration not stated) it was inactive: > 76.9 µM.
In the case of `O=C(Cn1cnc2c(oc3ccccc32)c1=O)NCCc1ccccc1` it was inactive: > 76.9 µM.
In the case of `N=c1c(C(=O)NCc2ccc3c(c2)OCO3)cc2c(=O)n3ccccc3nc2n1Cc1cccnc1` it was inactive: > 76.9 µM; in that of `CCC(C)(C)NC(=O)C(c1ccco1)N(C(=O)c1csnn1)c1cccc(F)c1` (configuration not stated), inactive: > 76.9 µM; in that of `Cc1cccc(NC(=O)C2c3ccccc3C(=O)N3CCc4ccccc4C23)n1` (configuration not stated), inactive: > 76.9 µM.
Regarding `O=C(Nc1ccccc1C(=O)NCC1CCCO1)c1ccco1` (configuration not stated), the Potency is inactive: > 76.9 µM.
In the case of `Cc1cc(C)c2nc(NC3=NCN(CCN4CCOCC4)CN3)nc(C)c2c1` it was inactive: > 76.9 µM.
In the case of `COc1cccc(C(O)c2cnc(C(C)C)n2C)c1OC` (configuration not stated), the Potency is inactive: > 76.9 µM.
For `CCOc1ccc(OCC)c(NC(=O)C2CCN(c3nn4c(=O)cc(C)nc4s3)CC2)c1` the value was “inactive”; for `CCOC(=O)C1CCCN(CC(=O)Nc2c(C(=O)OC)[nH]c3ccccc23)C1` (configuration not stated), inactive: > 76.9 µM; for `Cc1ccc(Cl)cc1NC(=O)Cn1cccc1`, inactive: > 76.9 µM.
In the case of `O=C(NCc1ccccn1)c1ccc(/C=N/O)nc1` it was inactive: > 76.9 µM.
For `CC(=O)N1CCc2cc(S(=O)(=O)NCCC(=O)NC3CCN(Cc4ccccc4)CC3)ccc21` the value was inactive: > 76.9 µM; for `Cc1ccc(S(=O)(=O)N(C)CC(=O)N2CCc3ccccc32)cc1`, inactive: > 76.9 µM.
`Cc1cc(C(=O)NCCCn2ccnc2)cs1`: the Potency is inactive: > 76.9 µM.
With `CCOC(=O)c1cccnc1SC(CC)C(=O)N1CCOCC1` (configuration not stated), the Potency is inactive: > 76.9 µM.
In the case of `COc1ccc(C(C)=O)c(Oc2nc(CN3CCOCC3)nc3scc(-c4cccs4)c23)c1` it was inactive: > 76.9 µM; in that of `CN1CCN(C(=O)c2sc(=S)n(-c3ccccc3)c2N)CC1`, inactive: > 76.9 µM.
In the case of `O=C(Nc1ccccc1)N1CC=C(c2ccc(F)cc2)CC1` it was inactive: > 76.9 µM.
Turning to `O=C(CCC1CCCCC1)N1CCN(Cc2ccc3c(c2)OCO3)CC1`, the Potency was inactive: > 76.9 µM.
In the case of `COC(=O)[C@H](CCSC)NC(=O)Nc1cc(C)ccc1C` it was inactive: > 76.9 µM; in that of `O=C(Nc1sc2c(c1C(=O)NC1CCCCC1)CCC2)c1ccco1`, inactive: > 76.9 µM.

These data come from PubChem BioAssay AID360 (National Center for Advancing Translational Sciences (NCATS), 2006).
